According to the antibiotic and cytotoxicity screens of Wong et al. (2023):
The other results are listed elsewhere or left out.

These compounds were tested on HepG2 (assay: cytotoxicity call (relative viability < 0.9)). Settings: 10 µM.

SMILES	cytotoxicity call
C[C@H]1CN([C@@H](C)CO)S(=O)(=O)c2ccc(-c3cccnc3)cc2O[C@@H]1CN(C)C(=O)NC1CCCCC1	inactive
C[C@@H]1CCCCO[C@H](CN(C)C(=O)Nc2ccc(C(F)(F)F)cc2)[C@@H](C)CN([C@@H](C)CO)C(=O)c2cc(NC(=O)Cc3ccccc3)ccc2O1	inactive
Cc1noc(C)c1S(=O)(=O)Nc1ccc2c(c1)CC(=O)N([C@@H](C)CO)C[C@@H](C)[C@H](CN(C)C(=O)Nc1ccc3c(c1)OCO3)O2	inactive
Cc1noc(C)c1NC(=O)N(C)C[C@H]1Oc2c(NC(=O)c3ccncc3)cccc2C(=O)N([C@@H](C)CO)C[C@@H]1C	inactive
C[C@@H]1CN([C@@H](C)CO)C(=O)Cc2cc(NS(=O)(=O)c3cccs3)ccc2O[C@@H]1CN(C)Cc1ccncc1	inactive
COc1ccc(NC(=O)N(C)C[C@H]2Oc3ccc(NC(=O)Nc4ccc(C(F)(F)F)cc4)cc3C(=O)N([C@H](C)CO)C[C@@H]2C)cc1	inactive
CN1C(=O)c2cc(NC(=O)Cc3cccs3)ccc2OC[C@@H]2O[C@@H](CC(=O)NCCc3ccncc3)CC[C@H]21	inactive

Each compound was assayed on S. aureus RN4220 (assay: growth inhibition call (relative growth <= 0.2)). Settings: 50 µM.

SMILES	growth inhibition call
Cc1ccc(S(=O)(=O)Nc2cccc3c2O[C@@H](CN(C)Cc2ccc(Oc4ccccc4)cc2)[C@H](C)CN([C@@H](C)CO)C3=O)cc1	inactive
NCCSSCCN	inactive
CCCOc1c(-c2ccc3ccccc3n2)cnc2ccccc12	inactive
O=C(CCCCCCC(=O)Nc1ccc([C@H]2O[C@@H](CSc3ccccc3)C[C@H](c3ccccc3)O2)cc1)NO	inactive
Cc1ccc(OC(=O)N(C)C[C@@H]2OCc3ccccc3-c3ccccc3C(=O)N([C@H](C)CO)C[C@@H]2C)cc1	inactive
COCC(=O)Nc1ccc2c(c1)OC[C@H](C)N(C(=O)c1ccccc1F)C[C@@H](C)[C@@H](OC)CN(C)C2=O	inactive
C[C@@H]1CCCCO[C@@H](CN(C)C(=O)Nc2cccc3ccccc23)[C@H](C)CN([C@H](C)CO)C(=O)c2cc(NS(=O)(=O)c3cn(C)cn3)ccc2O1	inactive
COc1ccc(S(=O)(=O)N(C)C[C@@H]2Oc3ccc(NS(=O)(=O)c4cn(C)cn4)cc3CC(=O)N([C@H](C)CO)C[C@@H]2C)cc1	inactive
COc1ccccc1CN1C(=O)c2ccccc2[C@](Cc2ccccc2I)(C(=O)NCCCN(C)C)[C@@H]1c1ccc(CO)cc1	inactive
O=C(O)[C@@H]1CC(=O)N(C2CCCC2)C1	inactive
CO[C@H]1CN(C)C(=O)c2cc(NC(=O)Nc3ccccc3F)ccc2OC[C@H](C)N(CCC(F)(F)F)C[C@@H]1C	inactive
COc1ccc(S(=O)(=O)N2C[C@@H](O)COC[C@H]3O[C@@H](CC(=O)NCCN4CCCCC4)CC[C@@H]32)cc1	inactive
C[C@@H]1CN([C@@H](C)CO)C(=O)c2cc(NS(=O)(=O)c3ccc(F)cc3)ccc2O[C@H]1CN(C)C(=O)Nc1cccc2ccccc12	inactive
COc1ccc(S(=O)(=O)Nc2ccc3c(c2)C(=O)N([C@@H](C)CO)C[C@H](C)[C@H](CN(C)Cc2ccc(Cl)c(Cl)c2)OCCCC[C@@H](C)O3)cc1	inactive
COc1ccc(NC(=O)Nc2ccc3c(c2)C(=O)N([C@@H](C)CO)C[C@@H](C)[C@H](CN(C)C(=O)Nc2ccc(F)cc2)OCCCC[C@H](C)O3)cc1	inactive
C[C@H](CO)N1C[C@H](C)[C@@H](CN(C)S(C)(=O)=O)Oc2ncc(C#CCN(C)C)cc2C1=O	inactive
CO[C@H](CN(C)C(=O)c1ccc2c(c1)OCO2)[C@H](C)CN([C@H](C)CO)S(=O)(=O)c1ccc(F)cc1	inactive
Cc1noc(C)c1NC(=O)N(C)C[C@@H]1OCCCC[C@H](C)Oc2ccc(NS(=O)(=O)c3ccc(F)cc3)cc2C(=O)N([C@@H](C)CO)C[C@H]1C	inactive
C[C@@H]1CN([C@@H](C)CO)C(=O)c2cc(NC(=O)CCC(F)(F)F)ccc2O[C@@H](C)CCCCO[C@@H]1CN(C)S(=O)(=O)c1ccc(Cl)cc1	inactive
CNC[C@@H]1OCCCC[C@@H](C)Oc2ccc(NC(=O)Nc3cccc4ccccc34)cc2C(=O)N([C@H](C)CO)C[C@@H]1C	inactive

SMILES	growth inhibition call
C[C@H]1CCCCO[C@@H](CN(C)C(=O)NC2CCCCC2)[C@@H](C)CN([C@@H](C)CO)C(=O)c2cc(NC(=O)Cc3ccccc3)ccc2O1	inactive
C[C@H]1CN([C@@H](C)CO)C(=O)Cc2cc(NC(=O)Nc3ccc(C(F)(F)F)cc3)ccc2O[C@H]1CN(C)C(=O)NC1CCCCC1	inactive
C[C@@H]1CN([C@@H](C)CO)C(=O)Cc2cc(NS(=O)(=O)c3ccc(F)cc3)ccc2O[C@@H]1CN(C)S(=O)(=O)c1ccccc1	inactive
C[C@H]1CCCCO[C@@H](CN(C)Cc2ccc3c(c2)OCO3)[C@@H](C)CN([C@@H](C)CO)C(=O)c2cc(NS(=O)(=O)c3cccs3)ccc2O1	inactive
C[C@H]1CCCCO[C@H](CN(C)C(=O)CCC(F)(F)F)[C@@H](C)CN([C@@H](C)CO)C(=O)c2cc(NC(=O)C3CCCCC3)ccc2O1	inactive
CCCC#Cc1cnc2c(c1)C(=O)N([C@H](C)CO)C[C@@H](C)[C@H](CN(C)C(=O)c1ccc3c(c1)OCO3)O2	inactive
Cc1[nH]c(=O)[nH]c(=O)c1S(=O)(=O)N1CCN(c2ccccc2)CC1	inactive
N=C(N)NC(=O)c1cnccn1	inactive
COC(=O)C(CC#Cc1ccc2c(c1)[C@]1(C(=O)N2)[C@H](c2ccccc2OCCO)N2[C@H](c3ccccc3)[C@H](c3ccccc3)OC(=O)[C@H]2[C@@H]1C(=O)N1CCc2cc(OC)c(OC)cc2C1)C(=O)OC	inactive
C[C@@H]1CN([C@@H](C)CO)C(=O)Cc2cc(NS(=O)(=O)c3ccc(F)cc3)ccc2O[C@@H]1CN(C)S(=O)(=O)c1cn(C)cn1	inactive
C[C@@H]1CN([C@H](C)CO)C(=O)c2cc(NC(=O)C3CCOCC3)ccc2O[C@H]1CN(C)S(=O)(=O)c1ccc(Cl)cc1	inactive
COc1ccc(S(=O)(=O)N(C)C[C@H]2OCCCC[C@@H](C)Oc3ccc(NC(=O)Nc4cccc5ccccc45)cc3C(=O)N([C@@H](C)CO)C[C@@H]2C)cc1	inactive
NCC[C@@H]1CC[C@@H](NC(=O)NC2CCCCC2)[C@H](CO)O1	inactive
C[C@H]1CN([C@@H](C)CO)S(=O)(=O)c2ccc(-c3cccnc3)cc2O[C@@H]1CN(C)C(=O)NC1CCCCC1	inactive
C[C@@H]1CCCCO[C@H](CN(C)C(=O)Nc2ccc(C(F)(F)F)cc2)[C@@H](C)CN([C@@H](C)CO)C(=O)c2cc(NC(=O)Cc3ccccc3)ccc2O1	inactive
Cc1noc(C)c1S(=O)(=O)Nc1ccc2c(c1)CC(=O)N([C@@H](C)CO)C[C@@H](C)[C@H](CN(C)C(=O)Nc1ccc3c(c1)OCO3)O2	inactive
Cc1noc(C)c1NC(=O)N(C)C[C@H]1Oc2c(NC(=O)c3ccncc3)cccc2C(=O)N([C@@H](C)CO)C[C@@H]1C	inactive
C[C@@H]1CN([C@@H](C)CO)C(=O)Cc2cc(NS(=O)(=O)c3cccs3)ccc2O[C@@H]1CN(C)Cc1ccncc1	inactive
COc1ccc(NC(=O)N(C)C[C@H]2Oc3ccc(NC(=O)Nc4ccc(C(F)(F)F)cc4)cc3C(=O)N([C@H](C)CO)C[C@@H]2C)cc1	inactive
CN1C(=O)c2cc(NC(=O)Cc3cccs3)ccc2OC[C@@H]2O[C@@H](CC(=O)NCCc3ccncc3)CC[C@H]21	inactive
